Not every entry of the source has a single result; some have several. Only these are listed. The calls were made as follows: active = hit-call score of the fitted dose curve at least 0.9, where 1 is the maximum; inactive = score below 0.9. An entry can have further records. Values that stand side by side are repeated measurements (runs, samples, wells, individuals or studies). Additions like (4×) say how often a value occurs here. Some compounds were tested as several samples or in several runs, with calls that do not always agree.

The record followed here is PubChem BioAssay (EPA / NIEHS).

The nature of test [1]: BSK_3C_TissueFactor: BioMAP Diversity Plus: 3C Assay for Tissue Factor Biomarker Activity (AID 2282997). As to conditions: BioMAP 3C HUVEC, tissue factor biomarker readout; actives raise or lower the signal. In outline: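 Readout: Tissue Factor ELISA. Cells: human primary umbilical vein endothelium. Time: 24 h after dosing. Analysis: bidirectional fit, DMSO baseline.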
Test [2] in a line: BSK_3C_uPAR: BioMAP Diversity Plus: 3C Assay for Urokinase-type plasminogen activator receptor (uPAR) Biomarker Activity (AID 2282998). Conditions: BioMAP 3C HUVEC, uPAR biomarker ELISA; actives raise or lower the signal. In short, it runs like this:
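Readout: ELISA for surface uPAR. System: human umbilical vein endothelial primary cells, 24 h after chemical exposure. Analysis: bidirectional fit, DMSO baseline.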

Test [3] is described as follows: BSK_3C_VCAM1: BioMAP Diversity Plus: 3C Assay for Vascular cell adhesion molecule 1 (VCAM1) Biomarker Activity (AID 2282999). Conditions: BioMAP 3C HUVEC, VCAM1 ELISA, cytokine-stimulated; actives raise or lower the signal. In short, it runs like this:
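HUVEC primary cells, 24 h compound exposure; VCAM-1 by ELISA; gain/loss of signal fitted bidirectionally vs DMSO baseline.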
(An ELISA detects its analyte on a solid surface through an enzyme-linked reagent.)

Test [4] in a line: BSK_4H_Eotaxin3: BioMAP Diversity Plus: 4H Assay for Eotaxin 3 Biomarker Activity (AID 2283000). As to conditions: actives raise or lower the signal; primary human endothelial cells (HUVEC). In short, it runs like this:
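HUVEC, 24 h post-dose, ELISA for Eotaxin-3/CCL26. Gain or loss of signal fitted bidirectionally vs DMSO baseline.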

Read-out in test [5]: Intercellular Adhesion Molecule 1 (ICAM1), ICAM1 (gene 3383)
The experiment in a line: BSK_3C_ICAM1: BioMAP Diversity Plus: 3C Assay for Intercellular Adhesion Molecule 1 (ICAM1) Biomarker Activity (AID 2283003). As to conditions: actives raise or lower the signal; primary human endothelial cells (HUVEC). In short, it runs like this: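 ELISA read-out of ICAM-1; HUVEC (primary human), 3C system, 24 h post-dosing; bidirectional fit vs DMSO baseline.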

Read-out in test [6]: E-selectin (Homo sapiens) (UniProt P16581)
Chain of UniProt P16581 (P16581 whole entry, looked up): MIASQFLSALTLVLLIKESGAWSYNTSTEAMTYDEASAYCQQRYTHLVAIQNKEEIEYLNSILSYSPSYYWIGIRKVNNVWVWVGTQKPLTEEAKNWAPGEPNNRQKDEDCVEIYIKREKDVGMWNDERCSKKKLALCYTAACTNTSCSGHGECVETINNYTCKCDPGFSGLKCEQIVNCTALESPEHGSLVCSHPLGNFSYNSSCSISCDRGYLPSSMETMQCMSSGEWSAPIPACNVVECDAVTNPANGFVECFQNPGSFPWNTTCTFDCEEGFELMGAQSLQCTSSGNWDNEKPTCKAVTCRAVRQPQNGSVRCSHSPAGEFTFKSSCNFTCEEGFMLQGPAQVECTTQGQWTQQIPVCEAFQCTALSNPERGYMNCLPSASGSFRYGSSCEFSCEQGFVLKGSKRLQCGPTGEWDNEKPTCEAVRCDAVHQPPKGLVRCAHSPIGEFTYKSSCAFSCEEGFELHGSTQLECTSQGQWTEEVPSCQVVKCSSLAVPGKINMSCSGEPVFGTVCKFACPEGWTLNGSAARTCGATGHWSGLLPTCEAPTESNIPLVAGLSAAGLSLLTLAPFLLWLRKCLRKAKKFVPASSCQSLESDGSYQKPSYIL
The experiment in a line: BSK_3C_Eselectin: BioMAP Diversity Plus: 3C Assay for Eselectin Biomarker Activity (AID 2283015). Conditions: actives raise or lower the signal; primary human endothelial cells (HUVEC). In outline: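 Primary human umbilical vein endothelial cells (3C system) were dosed with chemical and cell-surface E-selectin measured by ELISA 24 h later. Bidirectional curve fitting used DMSO as negative control and baseline.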

Read-out in test [7]: Monocyte Chemoattractant Protein-1 (MCP1), CCL2 (gene 6347)
The experiment in a line: BSK_3C_MCP1: BioMAP Diversity Plus: 3C Assay for Monocyte Chemoattractant Protein-1 (MCP1) Biomarker Activity (AID 2283017). Conditions: actives raise or lower the signal; primary human endothelial cells (HUVEC). In short, it runs like this:
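Primary human umbilical vein endothelial cells (3C system) were exposed to test chemical for 24 h, after which MCP-1 was quantified by ELISA. Activity was fitted bidirectionally against DMSO as negative control and baseline.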

Read-out in test [8]: Monocyte Chemoattractant Protein-1 (MCP1), CCL2 (gene 6347)
The experiment in a line: BSK_4H_MCP1: BioMAP Diversity Plus: 4H Assay for Monocyte Chemoattractant Protein-1 (MCP1) Biomarker Activity (AID 2283018). As to conditions: actives raise or lower the signal; primary human endothelial cells (HUVEC). In short, it runs like this: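 HUVEC primary cells, 24 h post-dose, MCP-1 by ELISA. Gain or loss of signal fitted bidirectionally vs DMSO baseline. Cytotoxicity: SRB stain (0.1% after 10% TCA fixation), read 560 nm, parallel cultures.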

Read-out in test [9]: Human Leukocyte Antigen - DR isotype (HLADR), HLA-DRA (gene 3122)
The experiment in a line: BSK_3C_HLADR: BioMAP Diversity Plus: 3C Assay for Human Leukocyte Antigen - DR isotype (HLADR) Biomarker Activity (AID 2283019). Conditions: actives raise or lower the signal; primary human endothelial cells (HUVEC). In outline: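 Primary human umbilical vein endothelial cells (3C system) were dosed with compound and cell-surface HLA-DR was quantified by ELISA at 24 h. Activity was fitted bidirectionally against DMSO as negative control and baseline.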

Read-out in test [10]: Interleukin-8 (IL8), CXCL8 (gene 3576)
The experiment in a line: BSK_3C_IL8: BioMAP Diversity Plus: 3C Assay for Interleukin-8 (IL8) Biomarker Activity (AID 2283020). Conditions: actives raise or lower the signal; primary human endothelial cells (HUVEC). In short, it runs like this: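 HUVEC, 3C stimulation; 24 h compound exposure; IL-8 read by ELISA; gain or loss of signal fitted relative to DMSO control.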

Read-out in test [11]: Monokine induced gamma interferon (MIG), CXCL9 (gene 4283)
The experiment in a line: BSK_3C_MIG: BioMAP Diversity Plus: 3C Assay for Monokine induced gamma interferon (MIG) Biomarker Activity (AID 2283021).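 Also: MIG protein level measured by immunoassay in the treated endothelial cultures.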 Conditions: actives raise or lower the signal; primary human endothelial cells (HUVEC). In short, it runs like this:
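HUVEC, 3C system; 24 h chemical exposure; MIG by ELISA; bidirectional fit vs DMSO baseline.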

A short description of test [12]: BSK_3C_SRB: Viability Assessment in the BioMAP Diversity Plus: 3C Assay (AID 2283023).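 Also: fitted both ways against DMSO so a hit may be signal rise or drop.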 As to conditions: primary human endothelial cells (HUVEC). In short, it runs like this: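 Primary human umbilical vein endothelial cells in the 3C system were read 24 h after compound dosing. Total protein was stained with 0.1% sulforhodamine B after 10% TCA fixation and read at 560 nm, with bidirectional fitting against DMSO as baseline.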

Read-out in test [13]: Matrix Metallopeptidase 1 (MMP1), MMP1 (gene 4312)
The experiment in a line: BSK_BE3C_MMP1: BioMAP Diversity Plus: BE3C Assay for Matrix Metallopeptidase 1 (MMP1) Biomarker Activity (AID 2283024). Conditions: actives raise or lower the signal; primary human bronchial epithelial cells. In outline:
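ELISA read-out of MMP1 in human lung bronchial epithelial primary cultures, 24 h post-dose; bidirectional curve fit vs DMSO baseline, gain or loss of signal scored.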

Test [14] in a line: BSK_4H_SRB: Viability Assessment in the BioMAP Diversity Plus: 4H Assay (AID 2283027).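 Also: cells exposed to compound for 24 h before staining; curves fitted both ways versus DMSO so AC50 may be loss or gain.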 As to conditions: primary human endothelial cells (HUVEC). In outline:
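HUVEC, 24 h post-dose; 10% TCA fix, 0.1% SRB stain, A560 nm. Total protein = overt cytotoxicity, parallel to biomarker read. Bidirectional fit vs DMSO baseline.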

Read-out in test [15]: Urokinase-type plasminogen activator receptor (uPAR), PLAUR (gene 5329)
In words: BSK_4H_uPAR: BioMAP Diversity Plus: 4H Assay for Urokinase-type plasminogen activator receptor (uPAR) Biomarker Activity (AID 2283030). As to conditions: actives raise or lower the signal; primary human endothelial cells (HUVEC). In outline:
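Primary human umbilical vein endothelial cells were exposed to chemical for 24 h before cell-surface uPAR was quantified by ELISA. Activity was fitted bidirectionally against the DMSO negative control baseline.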

Read-out in test [16]: Human Leukocyte Antigen - DR isotype (HLADR), HLA-DRA (gene 3122)
In words: BSK_BE3C_HLADR: BioMAP Diversity Plus: BE3C Assay for Human Leukocyte Antigen - DR isotype (HLADR) Biomarker Activity (AID 2283032). Conditions: actives raise or lower the signal; primary human bronchial epithelial cells. In short, it runs like this:
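Primary human bronchial epithelial cells (BE3C); 24 h chemical exposure; HLA-DR by ELISA; bidirectional curve fit vs DMSO baseline.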

Read-out in test [17]: Vascular cell adhesion molecule 1 (VCAM1), VCAM1 (gene 7412)
In words: BSK_4H_VCAM1: BioMAP Diversity Plus: 4H Assay for Vascular cell adhesion molecule 1 (VCAM1) Biomarker Activity (AID 2283033). As to conditions: actives raise or lower the signal; primary human endothelial cells (HUVEC). In short, it runs like this:
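HUVEC, 24 h post-dose; VCAM-1 by ELISA. Bidirectional curve fit vs DMSO baseline. Parallel SRB total-protein stain (0.1% SRB after 10% TCA fixation, 560 nm) for cytotoxicity.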

Read-out in test [18]: Tissue plasminogen activator (tPA), PLAT (gene 5327)
In words: BSK_BE3C_tPA: BioMAP Diversity Plus: BE3C Assay for Tissue plasminogen activator (tPA) Biomarker Activity (AID 2283041). As to conditions: actives raise or lower the signal; primary human bronchial epithelial cells. In outline: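 ELISA read-out of tPA on human primary bronchial epithelial cells, 24 h post-dosing; bidirectional fit vs DMSO negative control/baseline.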

Read-out in test [19]: Human Leukocyte Antigen - DR isotype (HLADR), HLA-DRA (gene 3122)
In words: BSK_CASM3C_HLADR: BioMAP Diversity Plus: CASM3C Assay for Human Leukocyte Antigen - DR isotype (HLADR) Biomarker Activity (AID 2283043).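 Also: cell-surface HLA-DR protein level quantified by ELISA.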 As to conditions: actives raise or lower the signal; primary human coronary artery smooth muscle cells.

Read-out in test [20]: CD40, CD40 (gene 958)
The experiment in a line: BSK_LPS_CD40: BioMAP Diversity Plus: LPS Assay for CD40 Biomarker Activity (AID 2283076). As to conditions: actives raise or lower the signal; primary human HUVEC with PBMC. In short, it runs like this:
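Primary human umbilical vein endothelial cells co-cultured with peripheral blood mononuclear cells, LPS-stimulated, were dosed with chemical and read 24 h later. CD40 levels were measured by ELISA and fitted bidirectionally against DMSO as negative control and baseline.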

Read-out in test [21]: E-selectin (Homo sapiens) (UniProt P16581)
In words: BSK_LPS_Eselectin: BioMAP Diversity Plus: LPS Assay for Eselectin Biomarker Activity (AID 2283077). As to conditions: actives raise or lower the signal; primary human HUVEC with PBMC. In outline:
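Human umbilical vein endothelial cells co-cultured with peripheral blood mononuclear cells under LPS stimulation; E-selectin measured by ELISA 24 h after chemical dosing. Activity fitted bidirectionally against DMSO as negative control and baseline.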

Read-out in test [22]: Interleukin-8 (IL8), CXCL8 (gene 3576)
The experiment in a line: BSK_LPS_IL8: BioMAP Diversity Plus: LPS Assay for Interleukin-8 (IL8) Biomarker Activity (AID 2283078). Conditions: actives raise or lower the signal; primary human HUVEC with PBMC. In short, it runs like this: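 Human umbilical vein endothelial cells co-cultured with PBMC were stimulated with LPS; IL-8 levels were measured by ELISA 24 h after chemical dosing. Activity was fitted bidirectionally against DMSO as negative control and baseline.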

A short description of test [23]: BSK_LPS_SRB: Viability Assessment in the BioMAP Diversity Plus: LPS Assay (AID 2283079).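 Also: total protein by sulforhodamine B absorbance as a cytotoxicity measure; measured one day after compound addition; fitted in both directions against DMSO so loss or gain of signal counts.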 Conditions: primary human HUVEC with PBMC. In outline: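 Human umbilical vein endothelial cells co-cultured with PBMC (LPS system) were dosed for 24 h. Total protein was stained with 0.1% sulforhodamine B after 10% TCA fixation, read at 560 nm, and fitted bidirectionally against DMSO baseline.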

Broadly, the AC50 is the concentration at which the activity in the assay is half-maximal. On to `FC(F)(I)C(F)(F)C(F)(F)C(F)(F)C(F)(F)C(F)(F)I`, for which the AC50 entry is “active: 14.6, 17.1, 14.7, 38.1, 44.1 µM [separate samples]” in test [1]; “active: 11.1, 10.8, 11.4, 55.1, 48.3 µM [separate samples]” in test [2]; “active: 17.4, 16.4, 11, 43, 48.4 µM [separate samples]” in test [3]; “active: 11.7, 16.6, 15.4, 44.7, 43.2 µM [separate samples]” in [4]; “active: 18.1, 15.9, 11.9, 45, 51.3 µM [separate samples]” in test [5]; “active: 14.2, 10.5, 10.1, 23.9, 51.9 µM [separate samples]” in [6]. Further, the AC50 entry in [7] was “active: 9.61, 11.7, 12.3, 23.8, 43.8 µM [separate samples]”; in test [8] it was “active: 11.7, 7.89, 10.9, 36.9, 21.9 µM [separate samples]”; in [9], “active: 17.5, 12.4, 10.7, 38.7, 49.9 µM [separate samples]”; in [10], “active: 10.7, 13.2, 12.1, 27.1, 46.9 µM [separate samples]”; in [11], “active: 15.2, 17.1, 11.5, 49.8, 53.4 µM [separate samples]”; in [12], “active: 9.92, 10.2, 11.5, 43.2, 25.7 µM [separate samples]”. For the same compound, the AC50 entry in test [13] was “active: 50.8, 54.5, 53.7 (2×), 14.1 µM [separate samples]”; in test [14], “active: 12.3, 12.6, 11.3, 49.7, 44 µM [separate samples]”; in test [15] it was “active: 11.4, 11.2, 12, 54.9, 24.7 µM [separate samples]”; in test [16], “active: 20 (2×), 14.8, 33.3, 45.3 µM [separate samples]”; in [17] it was “active: 12.4, 12.3, 9.69, 36.2, 23.6 µM [separate samples]”; in test [18], “active: 10.7, 14.4, 39.4, 32.4 µM [separate samples]”. Also, the concentration at half-maximal activity (AC50) result in test [19] was “active: 19.1, 8.33, 16.1, 23.6, 36 µM [separate samples]”; in [20], “active: 14.3, 17.7, 18.5, 54.2, 58.8 µM [separate samples]”; in [21] it was “active: 10.9, 22.1, 21.6, 52.3, 40.8 µM [separate samples]”; in [22], “active: 14.5, 16, 18.8, 23.1, 46.6 µM [separate samples]”; in test [23], “active: 12, 21, 18.1, 58.6, 49.9 µM [separate samples]”.
